From the supplement of paper PMC4604168 (melanoma cell lines)
This is one part of the list. Single values are uncertain, as repeats are few or missing.

Key:
Assay in all cases: cell count relative to DMSO control; melanoma cells; higher = more viable cells
Details in all cases: library dose: low library concentration; 72 h
[1] = tested on: COLO792
[2] = tested on: COLO800
[3] = tested on: COLO829
[4] = tested on: G361
[5] = tested on: IPC-298
[6] = tested on: IST-MEL1
[7] = tested on: LB2518-MEL
[8] = tested on: LOXIMVI
[9] = tested on: MEL-HO
[10] = tested on: MZ2-MEL
[11] = tested on: MeWo
[12] = tested on: RPMI7951
[13] = tested on: RVH-421
[14] = tested on: SkMel28
[15] = tested on: SkMel2
[16] = tested on: SkMel30
[17] = tested on: SkMel5
[18] = tested on: UACC257
[19] = tested on: UACC62
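Also: cell number obtained by counting DAPI-stained nuclei in high-throughput microscope images with image analysis software, screen run in 1,536-well plates.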

Compound	cell count [1] [%]	cell count [2] [%]	cell count [3] [%]	cell count [4] [%]	cell count [5] [%]	cell count [6] [%]	cell count [7] [%]	cell count [8] [%]	cell count [9] [%]	cell count [10] [%]	cell count [11] [%]	cell count [12] [%]	cell count [13] [%]	cell count [14] [%]	cell count [15] [%]	cell count [16] [%]	cell count [17] [%]	cell count [18] [%]	cell count [19] [%]
NC1(c2ccc(-c3nc4ccn5c(=O)[nH]nc5c4cc3-c3ccccc3)cc2)CCC1 + O=c1cc(-c2cccc3c2Sc2ccccc2S3)oc(N2CCOCC2)c1 [KU55933] (first compound 0.4 µM, partner dose 1 µM)	72.8	88.1	123	100	103	85.8	113	145	81	96.4	78.1	102	87	74.6	82.5	83.5	96.1	83.5	73.2
NC1(c2ccc(-c3nc4ccn5c(=O)[nH]nc5c4cc3-c3ccccc3)cc2)CCC1 + C[C@@H]1CCN(C(=O)CC#N)C[C@@H]1N(C)c1ncnc2[nH]ccc12 [CP690550] (first compound 0.4 µM, partner dose 1 µM)	70.5	132	101	97.1	92.5	85.9	89	74.3	89.8	102	82.8	103	86.1	61.3	87.1	73.8	86.2	80.7	85.1
CS(=O)(=O)c1ccc(C(=O)Nc2ccc(Cl)c(-c3ccccn3)c2)c(Cl)c1 [vismodegib] + O=C(Nc1ccccc1)c1cc([N+](=O)[O-])ccc1Cl [GW9662] (first compound 1 µM, partner dose 2 µM)	114	110	90.1	84.2	103	104	107	78.8	103	99.2	94.6	102	120	91.4	99.2	108	99	105	98.9
CCCS(=O)(=O)Nc1ccc(F)c(C(=O)c2c[nH]c3ncc(Cl)cc23)c1F + c1cc(-c2cnn3cc(-c4ccc(OCCN5CCCCC5)cc4)cnc23)ccn1 [Dorsomorphin] (first compound 0.08 µM, partner dose 0.4 µM)	97	113	156	84.8	83.9	94.8	104	107	92	82.3	107	123	92.5	89.1	102	94.1	108	88.1	68.6
CS(=O)(=O)c1ccc(C(=O)Nc2ccc(Cl)c(-c3ccccn3)c2)c(Cl)c1 [vismodegib] + COc1cc2ncnc(Nc3ccc(Oc4ccccc4)cc3)c2cc1OC [SrcI1] (first compound 1 µM, partner dose 2 µM)	99.6	121	126	101	92.1	105	125	132	91.3	90.8	104	106	111	96.7	106	109	95	97.6	96.9
CN(c1ncccc1CNc1nc(Nc2ccc3c(c2)CC(=O)N3)ncc1C(F)(F)F)S(C)(=O)=O + Cc1cc([N+](=O)[O-])ccc1NS(=O)(=O)c1cc(Cl)ccc1Cl [FH535] (first compound 0.08 µM, partner dose 1 µM)	73.9	110	82.9	98.3	95.7	86.6	82.2	93.1	90.2	88.6	93.2	76.3	85	71.9	84.8	83.3	77.9	67	71.5
CCCS(=O)(=O)Nc1ccc(F)c(C(=O)c2c[nH]c3ncc(Cl)cc23)c1F + O=C(CCCCCCC(=O)Nc1ccccc1)NO [vorinostat] (first compound 0.08 µM, partner dose 0.08 µM)	107	87.3	101	81.3	92.8	102	123	102	81.2	88.1	94.2	111	83.1	79.8	100	79	102	73.9	82.7
CS(=O)(=O)c1ccc(C(=O)Nc2ccc(Cl)c(-c3ccccn3)c2)c(Cl)c1 [vismodegib] + CC(C)(C)c1cnc(CSc2cnc(NC(=O)C3CCNCC3)s2)o1 [SNS-032] (first compound 1 µM, partner dose 0.01 µM)	90.4	101	88.3	102	102	102	84.5	69.1	91.8	99.8	100	77.3	104	89.2	103	97.7	92.2	50.2	89.4
CS(=O)(=O)c1ccc(C(=O)Nc2ccc(Cl)c(-c3ccccn3)c2)c(Cl)c1 [vismodegib] + COc1ccc(COc2ccc(Cc3cnc(N)nc3N)cc2OC)cc1 [GW2580] (first compound 1 µM, partner dose 1 µM)	102	101	112	115	102	86.5	113	84.7	107	102	101	99.7	128	103	113	124	122	118	91
C=C(c1ccc(C(=O)O)cc1)c1cc2c(cc1C)C(C)(C)CCC2(C)C [Bexarotene] + CO[C@@H]1[C@H](N(C)C(=O)c2ccccc2)C[C@H]2O[C@]1(C)n1c3ccccc3c3c4c(c5c6ccccc6n2c5c31)C(=O)NC4 [Midostaurin] (first compound 2 µM, partner dose 0.08 µM)	97.9	151	101	73	95.5	93.6	89.2	60.9	84.1	92	79.4	71.4	88.3	66.5	76.6	91.7	65.2	77	72.7
NC1(c2ccc(-c3nc4ccn5c(=O)[nH]nc5c4cc3-c3ccccc3)cc2)CCC1 + N#Cc1c(O)c2c(-c3ccc(-c4ccccc4O)cc3)csc2[nH]c1=O [A769662] (first compound 0.4 µM, partner dose 2 µM)	60.3	85.9	79.4	94.5	99.4	99.2	105	116	79.5	96.2	76.6	87.3	80.4	63.2	84.5	90.2	94	91.9	84.7
NC1(c2ccc(-c3nc4ccn5c(=O)[nH]nc5c4cc3-c3ccccc3)cc2)CCC1 + Oc1nc(-c2ccc(C(F)(F)F)cc2)nc2c1CSCC2 [XAV939] (first compound 0.4 µM, partner dose 2 µM)	64.9	68.2	121	96.5	110	109	86.2	76.4	97	97	95.6	91.7	137	70.3	93.3	92.5	81.2	83.9	90.6
C=C(c1ccc(C(=O)O)cc1)c1cc2c(cc1C)C(C)(C)CCC2(C)C [Bexarotene] + COc1cc2ncnc(Nc3ccc(Oc4ccccc4)cc3)c2cc1OC [SrcI1] (first compound 2 µM, partner dose 2 µM)	82.5	210	112	95.2	89.5	105	115	124	107	93.4	89.2	103	116	69.7	92.5	107	85.4	114	90.2
C=C(c1ccc(C(=O)O)cc1)c1cc2c(cc1C)C(C)(C)CCC2(C)C [Bexarotene] + COc1ccc(-c2ccc3c(N4CCOCC4)nc(N4C[C@@H](C)O[C@@H](C)C4)nc3n2)cc1CO [KU0063794] (first compound 2 µM, partner dose 0.02 µM)	99.9	119	68	69	88.5	99.1	101	109	91.6	95.4	80.1	73.1	83.4	73.7	86.1	109	84.4	96.2	92.4
CS(=O)(=O)c1ccc(C(=O)Nc2ccc(Cl)c(-c3ccccn3)c2)c(Cl)c1 [vismodegib] + Cn1cncc1[C@@](N)(c1ccc(Cl)cc1)c1ccc2c(c1)c(-c1cccc(Cl)c1)cc(=O)n2C [tipifarnib] (first compound 1 µM, partner dose 0.01 µM)	85.9	95.1	98.5	88.1	95.4	95.5	85.7	110	92.5	105	98.9	127	74.4	101	85	100	103	83	90.8
CS(=O)(=O)c1ccc(C(=O)Nc2ccc(Cl)c(-c3ccccn3)c2)c(Cl)c1 [vismodegib] + N#Cc1c(O)c2c(-c3ccc(-c4ccccc4O)cc3)csc2[nH]c1=O [A769662] (first compound 1 µM, partner dose 2 µM)	98.5	117	105	99.3	103	97	95.4	66	96.4	97.2	119	96	115	111	99.7	94.1	107	101	95.7
CS(=O)(=O)c1ccc(C(=O)Nc2ccc(Cl)c(-c3ccccn3)c2)c(Cl)c1 [vismodegib] + C[C@@H]1CCN(C(=O)CC#N)C[C@@H]1N(C)c1ncnc2[nH]ccc12 [CP690550] (first compound 1 µM, partner dose 1 µM)	107	90.6	97.4	99.6	103	99.2	102	64.1	104	107	101	92.2	104	98.3	97.5	105	99.4	109	110
